Laboratory results published in the RNAGym collection of RNA variant scans (doi:10.7554/elife.90254).
The source gives no read counts; variants with many changes may rest on few reads.

B1: LINE1-full (parent)
chain: UACGUAGGUGGUUUUCCCCUGAUAGUGCUAAGGGGGCCUGGAAGUUUGGACUGGGCAGAGCUCAACACAGCGUGGCAAAGUGGCUGUGGCUAGACUGCCUCUCUGGAUUCCUCGUCACUCAGCAGGGCAUCUCUGAGAGAAAUGCC

Variants of: B1
Assay: self-cleavage, relative activity (ratio to wild type); higher = more cleavage; in vitro, sequencing; the parent is a self-cleaving ribozyme

Variant	self-cleavage
U26C A117G A124U	1.12
G8A U73A U130C C145U	1.61
A22G U102C A117U	1.21
U23C U45A U52A U132C	1.71
U12C A30G U73C	2.16
C98U G126A A136G	0.62
A30G A42G U62A U85A	0.28
A57U U85C U104C A107U	0
A57U A142U C146U	0.1
A79U U85C G88A	0.08
G54A A79G U112A C113U	0.83
A65G U119A U130C A142G	0.12
A42G A43G U85A U108C	0.28
C18A G33A U85C U143C	0.19
G33A A59U A92G	0.04
U39C A94G U132C A138G	0.51
U13C A31U A140G	2.13
A43G U85A G88A	0.05
A30G G106C U115C	2.87
U13C A42G A57G A94G	0
G4A G25A A50G U109C U112C U130C	2.3
U9A A24U U143A	0.72
U39A A43G U62C	0.04
U12C C51A A117U	1.33

Variant	self-cleavage
U14C A64G A67U U102C	0
U1G C63U A92G A94G	0.43
A50G A79G A129G G144A	0
U12G U112C U134A A141G	1.48
A57G U87A A136U	0.09
U13A U39A U46A U119C A140G	1.8
U5C G35A C37G A141G	0.9
C63U C71U A78G	0.07
U13C A129G A142G	2.3
U39C A50G U73A U134C	0.9
G4A A42G U91A A136G	1.11
U5C U13C A129G C145G	0.75
A30G A57G U100C	0
G8U C131U U132A	1.98
U73A U100C U115A	2.11
A57U U85A A107G	0.03
G40U A79G A140G	1.06
A42G G55A A77U U96A	0.03
A42G A50C G53A U112A A142G U143A C145A	0.86
U62C U100A A117G	0
U26A A65G U81C A142G	0
A6G U12C A22G U29A U119A	0.72
A42G U100A A117G A129G	2.63
U26C G41A A59G A117C	0.04

Variant	self-cleavage
A59U A77U U132C	0
A42G U73C U100C A117C	1.15
A2G U9C A121U A142U	0.84
A43G C61U U73C U91C	0.04
A64U C68U U102C A117G U134A	0.09
U26C U130C A142G U143C	0.66
U39A U45C C76U	1.89
U9A U39C G58A C145A	0.09
A6C A59G A78U G125A	0.2
U5C U13C A64U A69U A121G U134C	0.43
U1A A65G U73A U143C	0.1
U9A C51U G125U	1.9
U9A U102C U115A	1.53
A43G A107G A142G	0.66
U46C A67G U119A	0.56
U14C U73A U132A	1.72
U13C G49A U109C U119A A124U U143A	1.1
A30G U119C A136U A140U	0.96
U5C U52A U132C	0.65
U29C A129U A142G	0.92
U14A U52C A79U	1.12
U9C A30G C76G A129G	2.27
U47A U100C A124U	2.01
U39C U45C A140G	1.54

Variant	self-cleavage
U15A U39C A65G U100C	0
U5C U15C A64G C84A U85C U87C C131A A138G	0
U13C A50G A78G A142G	0.71
C3A U73C U96C G114A	0.08
U14A U45C U73C C113U	1.25
G41U A42G U108C C123U A136G	1.2
A43G A50G U100A	0.48
G53U U62A U143A	0.02
U47C A69G U73C	0
U14C U45C A79G C84U U87C G89U C98G A124G A129G	0.15
U5C U45C U115C	1.02
U12A A69G U85C	1.84
A57G A79G U115A	1.15
U39A U52A U108C	1.77
G34A A57G A65U	0.16
U13C U14C A140G	1.11
U12A G54A G114C	0.41
G89U U102C U115A	0.03
U15A G72U G93A U96A U115C	0.03
U14A U29C A67G	0
U13C U112C C131A	1.39
U12C U20C U39A A107G	1.09
U1A U9A G89A U108C U109C	0
A31G A42G U109A U115A	0.71

Variant	self-cleavage
A2G U12C U14G A69G	1.53
U5C A43G A92G	0
U45C U112C A141U	1.41
U1C A6U C19U	0.8
U52A C128A U143C	1.67
C19U U47C G49U	1.53
C68U U108A A138G	0.02
G40A U108C U134C	0.86
U45A A79C C116U	2.04
U13C U46C C71U A92G	0.09
U20C A43G U87A U104C	0.15
U1C G53A U87A	0.03
U9C A57G U132C A138U	1.78
A22G U46C G125U	0.94
U14C A69U U130C	0.27
A2G A92G U102C A136G	0
A42U A77U G83A A142G	0.48
U15C A22G G35A U45C U132C U134A	0.38
U45C A94G A136G	0.24
U13A A22G A43G G70A A117U A129G	0.13
A6U U20A U134C	0.87
A22G U85C U115C	1.53
C17U A22G G137A A138G	0.92
G11C U20C A79U U81A A142G	2.45

Variant	self-cleavage
U39G U62C C63U	0.08
A65G U96C U119C G137A	0.18
A30U A77G U134C	0
U62C A65G U132G	0
U9A A31G A77U A92C	0.3
A43G U100A A107G A140G A141G	0
U9C A43G A59G A64G	0
A59U A79G U100C	1.35
U12C U62C A69U A124G A141G	0.06
A42G U96A U109C	0.19
U14G U26A G35A U39C A69G U104A	0.25
U39A U87A C90U A121U	0.02
U39C G49A A78G U115G U119C	2.3
U20C A59G A117G	0
C18A U130A A140U	1.46
A2G U45C C128U	2.87
U26C A57G U119C A140G	2.3
A77U U96C U108C G114A A141G	0.07
U14C A31G A79G U96C	0
C3A U20C U23C C37U U85C	0.14
U13C C76U A142G	2.56
U9A A42G G106C	0.68
G105A A124U A138G	1.96
U20C U91C A141U	0.71

Variant	self-cleavage
A94G U119C U130A	0.36
C38A G54A U102C	0.22
G33A C76U A129G	2.3
A22U U47C U102C A117U	2.16
U13C G40A A129G	0.91
U20C U47G G55C	0.16
U20C U62C U143C	0.12
A77U U96C A138G	0.19
U1C G7A A24G	1.84
U91C A129U U143A	0.5
U39C U115C C145U	1.48
U39C U96G A142G	0
U12A A77G G137U	1.93
A78G U109C U115C	1.31
U12C A78U A124G	1.89
U62A C99U A107G U112C	0.05
A2G U46C A64G	0.23
U5A U12A A69G C113U	0.44
G34U A92G U143A	0.08
A30U U46C A59U A121U U134C	0.99
U26A U46C A129U	1.29
A22G A50G U73A U81G U119C A140G	0.66
G8A G21A G32C A124G U143C	0.45
